PubChem BioAssay AID1745853 (National Center for Advancing Translational Sciences (NCATS), 2022)
Some of the results follow. The main result of the screen is listed elsewhere. These columns were measured beside it and carry no call.

Experiments:
Assay in all cases: Primary Screen for Target Class Profiling of Small Molecule Inhibitors of Methyltransferases
[1] = biological target: Glycine N-methyltransferase (Homo sapiens) (UniProt Q14749); conditions: purified enzyme, MTase-Glo SAH luminescence; measured here: GNMT inhibition; at 40 µM; stronger effect = lower value
Procedure, shortened: (§1)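 Each enzyme was assayed with SAM and its substrate. SAH formation detected by MTase-Glo luminescence; single-point 40 uM screen[…].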

[2] = biological target: Guanidinoacetate N-methyltransferase (Homo sapiens) (UniProt Q14353); conditions: purified enzyme, MTase-Glo SAH luminescence; measured here: GAMT inhibition; at 40 µM; stronger effect = lower value
Procedure, shortened: as §1

[3] = biological target: Histamine N-methyltransferase (Homo sapiens) (UniProt P50135); conditions: purified enzyme, MTase-Glo SAH luminescence; measured here: HNMT inhibition; at 40 µM; stronger effect = lower value
Procedure, shortened: as §1

[4] = biological target: Nicotinamide N-methyltransferase (Homo sapiens) (UniProt P40261); conditions: purified enzyme, MTase-Glo SAH luminescence; measured here: NNMT inhibition; at 40 µM; stronger effect = lower value
Procedure, shortened: as §1

[5] = biological target: Phenylethanolamine N-methyltransferase (Homo sapiens) (UniProt P11086); conditions: purified enzyme, MTase-Glo SAH luminescence; measured here: PNMT inhibition; at 40 µM; stronger effect = lower value
Procedure, shortened: as §1
% is scaled to controls: 0 for no effect and ±100 for the full control effect.

Structure (SMILES) | activity change, negative = inhibition [1] | activity change, negative = inhibition [2] | activity change, negative = inhibition [3] | activity change, negative = inhibition [4] | activity change, negative = inhibition [5]
O=C(O)CCNS(=O)(=O)c1ccc2[nH]c(=O)[nH]c2c1 | 1.55% | 0% | 9.44% | 11.5% | 2.31%
CCCCN1C(=O)c2cc(C(=O)Nc3ccc(C)cc3Cl)nn2CC1(C)C(=O)NC1CCCC1 (stereo not drawn) | 2.79% | 0.6% | -10.1% | 4.13% | 2.77%
COc1ccc(C2(O)c3ccccc3NC(=O)C2OC)cc1 (stereo not drawn) | 3.24% | 2.63% | 6.95% | -10.5% | 1.45%
COc1ccc(N(C(=O)c2ccccc2F)S(=O)(=O)c2ccc3c(c2)n(C)c(=O)n3C)cc1 | -2.07% | 3.71% | -0.655% | 0.46% | -1.51%
CC1OC(OC2C(C)OC(OC3C(O)C(CO)OC(O[C@H]4CC[C@@]5(C)C(CC[C@]6(C)C5CC=C5C7[C@@H](C)[C@H](C)CC[C@]7(C(=O)O)CC[C@]56C(=O)O)C4(C)C)C3O)C(O)C2O)C(O)C(O)C1O (stereo partly drawn) | -2.1% | -1.99% | 1.93% | -13.8% | 1.92%
CCc1ccccc1N1C(=O)c2cc(-c3ccc(OC)cc3)nn2CC1(C)C(=O)NCc1ccccc1 (stereo not drawn) | 2.33% | 1.08% | 2.19% | 4.36% | -4.57%
Cc1ccccc1N1C(=O)c2cc3sccc3n2CC1(C)C(=O)NC1CCCCC1C (stereo not drawn) | 1.78% | 1.06% | 5.48% | 1.44% | 1.75%
CC1(C(=O)NCc2ccc(F)cc2)Cn2cnc(C(=O)NCCc3cccs3)c2C(=O)N1C1CC1 (stereo not drawn) | 3.08% | 2.44% | 14.4% | 4.74% | 9.56%
O=C(NNc1ccccc1)c1ccncc1 | 5.67% | 6.25% | 10.9% | -1.81% | 8.08%
Cc1cccc(C(=O)Nc2ccc3c(c2)C(=O)N(C)C2=NCCN23)c1 | -10.4% | -5.47% | -6.05% | -8.25% | -11.5%
CN(CC1CCOCC1)C(=O)c1ccsc1 | -0.149% | -0.855% | 3.31% | -1.81% | -1.25%
Cn1c(Cn2cccn2)nnc1C1CCCN(C(=O)c2ccoc2)C1 (stereo not drawn) | -2.99% | -8.18% | -1.06% | -10.7% | -8.01%
O=C(NCCc1cccs1)c1cc2n(n1)CCCN(Cc1ccc(F)cc1)C2=O | -3.76% | 0% | 6.71% | 0.893% | 3.1%
C=C(C)C1CC=C(C(=O)O)CC1 (stereo not drawn) | 3.32% | 4.77% | 4.5% | -8.73% | -0.704%
CCC(C)N1C(=O)c2c(NC(C)=O)c3cc(F)ccc3n2CC1(C)C(=O)NC1CCCCC1 (stereo not drawn) | -2.18% | 0% | 0.746% | -0.159% | 1.39%
Cn1c(=O)c(F)c(Nc2ccc(I)cc2F)c2c(=O)n(CC(O)CO)cnc21 (stereo not drawn) | -12.7% | -4.47% | -0.375% | -27.6% | -11.2%
Cc1ccc2c(c1)c(-n1cccc1)c1n2CC(C)(C(=O)NC2CCCC2)N(Cc2cccnc2)C1=O (stereo not drawn) | -5.77% | 2.69% | -5.93% | -20% | -2.4%
CC(C)n1cnc2cc(CNC(=O)c3cccnc3)ccc21 | 14.2% | 0.7% | 9.19% | 7.87% | 7.43%
Cc1ccncc1C(=O)N1CC[C@@H]2CN(S(C)(=O)=O)[C@@H]2C1 | -0.073% | 0.773% | 1.43% | 1.15% | 0.839%

Structure (SMILES) | activity change, negative = inhibition [1] | activity change, negative = inhibition [2] | activity change, negative = inhibition [3] | activity change, negative = inhibition [4] | activity change, negative = inhibition [5]
O=C(c1ccc2ccccc2n1)N1CC2CC(C1)[C@H]1CCCC(=O)N1C2 (stereo partly drawn) | 1.87% | 0.565% | 1.82% | -2.11% | 1.87%
CCOC(=O)c1cc2n(n1)CC(C)(C(=O)NCc1ccccc1OC)N(c1ccc(OCC)cc1)C2=O (stereo not drawn) | 3.36% | 0% | 6.75% | 5.35% | 4.61%
COc1cccc(N2CCN(S(=O)(=O)c3cc4c(cc3C)n(C)c(=O)n4C)CC2)c1 | 5.54% | 0.457% | 1.66% | 1.86% | 4.41%
Cc1ncccc1C(=O)N1C[C@H]2OC(=O)N(CCc3cccc(Cl)c3)[C@H]2C1 | -9.28% | -8.43% | -6.7% | -9.91% | -3.59%
CCc1ccc(S(=O)(=O)c2nnn3c2nc(NCCCN2CCCC2=O)c2cc(Cl)ccc23)cc1 | -18.3% | 1.71% | -9.32% | -14.3% | -5.66%
COc1cccn(CC(=O)N2CCN(c3ccccc3C#N)CC2)c1=O | -5.16% | 1.99% | 0.579% | -1.41% | 2.42%
COc1ccc(OC)c2c1cc1n2CC(C)(C(=O)NC2CCCCC2)N(Cc2ccc(F)cc2)C1=O (stereo not drawn) | -4.28% | -2.58% | -2.36% | -6.72% | -7.96%
CC1CCC(NC(=O)C2(C)Cn3c(cc4sccc43)C(=O)N2Cc2cccs2)CC1 (stereo not drawn) | -0.728% | 1.94% | -6.13% | -12.8% | -4.56%
COCCN1C(=O)c2cc(-c3ccc(OC)cc3)nn2CC1(C)C(=O)NCc1ccccc1 (stereo not drawn) | 3.52% | 0.687% | 4.09% | 8.58% | 0.049%
[N-]=[N+]=N[C@]1(CO)O[C@@H](n2ccc(=O)[nH]c2=O)[C@@H](O)[C@@H]1O | -4.4% | -5.73% | 7.58% | -14% | 1.27%
CN(C)CC[C@@H](c1ccc(Br)cc1)c1ccccn1 | -10.2% | -1.23% | -23.9% | -16.1% | 0.499%
CN[C@H](CC(C)C)C(=O)N[C@H]1C(=O)N[C@@H](CC(N)=O)C(=O)N[C@H]2C(=O)N[C@H]3C(=O)N[C@H](C(=O)N[C@H](C(=O)O)c4cc(O)cc(O)c4-c4cc3ccc4O)[C@H](O[C@H]3C[C@](C)(N)[C@@H](O)[C@H](C)O3)c3ccc(c(Cl)c3)Oc3cc2cc(c3O[C@@H]2O[C@H](CO)[C@@H](O)[C@H](O)[C@H]2O[C@H]2C[C@](C)(NCc3ccc(-c4ccc(Cl)cc4)cc3)[C@@H](O)[C@H](C)O2)Oc2ccc(cc2Cl)[C@H]1O | -0.737% | 17.6% | 3.99% | -15.1% | -0.164%
CCCS(=O)(=O)N1CCC2(CC1)c1[nH]c3ccccc3c1CCN2C | -7.21% | 0.19% | -1.78% | 2.1% | 0.158%
CC1CCN(S(=O)(=O)c2ccc3c(ccn3CCC(=O)NC3CCCCC3C)c2)CC1 (stereo not drawn) | -0.352% | 3.67% | -3.61% | -5.54% | -4.94%
Cc1ccccc1CN1C(=O)c2ccc(-c3ccco3)n2CC1(C)C(=O)NC1CCCCC1C (stereo not drawn) | 0.262% | 0% | 5.54% | 1.92% | 2.77%
Cc1cccc(NC(=O)CSc2nnc3n(CCC(C)C)c(=O)c4ccccc4n23)c1 | -0.548% | 0% | 7.83% | -3.01% | 1.92%
COC(=O)c1ccc(=O)c2nc3/c(=C/O)c(O)cc(=O)c3[nH]c12 | – | -76.2% | – | -71% | -85.6%
O=C(NC1CC1)c1nc2sccn2c1-c1ccc(C(F)(F)F)cc1 | -2.17% | -2.35% | -0.865% | -13.9% | -15.1%
CC1(C(=O)NC2CCCCCCC2)Cn2c(cc3sccc32)C(=O)N1Cc1ccco1 (stereo not drawn) | -18.6% | 0.504% | -4.2% | -16.2% | -6.12%

Structure (SMILES) | activity change, negative = inhibition [1] | activity change, negative = inhibition [2] | activity change, negative = inhibition [3] | activity change, negative = inhibition [4] | activity change, negative = inhibition [5]
COc1ccc(OC)c(CCNC(=O)CNC(=O)C2(C)Cn3c(cc4ccccc43)C(=O)N2C)c1 (stereo not drawn) | 5.29% | 0% | 7.93% | 7.79% | 3.41%
O=C(Cn1c(=O)oc2cc(S(=O)(=O)N3CCCC3)ccc21)Nc1ccc(Cl)cc1F | 1.24% | 0.815% | 7.31% | 8.23% | -1.79%
COc1ccc(CNC(=O)C(C)n2ccc3cc(S(=O)(=O)N4CCCCC4)ccc32)cc1 (stereo not drawn) | 5.75% | 0% | 7.11% | 4.28% | 4.12%
CC(C)c1ccc(N2C(=O)CSc3c(c4ccccc4n3C)C2C(=O)NCc2ccccc2)cc1 (stereo not drawn) | 0.232% | 2.03% | -2.2% | -4.32% | -6.09%
COc1cc([C@H]2O[C@H](c3cc(OC)c4c(c3)OCO4)[C@H](C)[C@H]2C)cc(OC)c1OC | 0% | 8.92% | 8.41% | -7.62% | 0.766%
CCc1ccc(-c2cc3n(n2)CC(C)(C(=O)NC2CCCCCC2)N(CCCOC(C)C)C3=O)cc1 (stereo not drawn) | -2.33% | 5.3% | 7.61% | -0.779% | -0.194%
CN1C(=O)c2cc(C(=O)NCCCN3CCCC3)nn2CC1(C)C(=O)NC1CCCCCC1 (stereo not drawn) | -1.84% | -2.27% | -5.74% | -0.458% | -2.75%
Cc1ccc(-n2cccc2CC(=O)N2CCOCC2)cc1 | -9.84% | -10.7% | -3.54% | -15.4% | -1.79%
COc1ccc(OC)c(CCNC(=O)CCc2nnc3n(Cc4ccc(C)cc4)c(=O)c4ccccc4n23)c1 | -3.29% | 0% | -2.47% | -7.23% | -10.4%
COc1cccc(CN(C(=O)CC(C)(C)C)[C@H]2C[C@H](C(=O)N3CCNCC3)N(Cc3ccc4c(c3)OCO4)C2)c1 | -8.68% | -7.17% | 1.93% | -22.2% | -3.4%
C=CCN(C)C(=O)[C@@H](C)C1CC[C@@]2(C)Cc3sc(-c4cccnc4)nc3[C@@H](C)[C@@H]2[C@H]1O (stereo partly drawn) | -4.85% | 0.313% | -0.525% | 63.5% | -12.8%
O=C([C@@H]1C[C@H](F)CN1C(=O)CCCc1ccccc1)N1CCCCC1 | -2.73% | 3.22% | 2.02% | -3.01% | -1.73%
CC(C)CNC(=O)c1ccc2c(=O)n(C(C)C)c3nn(CC(=O)Nc4cccc(Cl)c4)c(=O)n3c2c1 | 4.37% | 0.664% | 6.89% | 3% | 6.71%
CCN1C(=O)c2cc(C(=O)Nc3cc(C)cc(C)c3)nn2CC1(C)C(=O)NC1CCCC1 (stereo not drawn) | 1.41% | 2.33% | -22.7% | 1.38% | 1.88%
CN(C)c1nc(N)c(C(=O)N=C(N)N)nc1Cl | 5.82% | 13.4% | -6.94% | -5% | 1.99%
CC1(C(=O)NC2CCCC2)Cn2c(nc3ccccc32)C(=O)N1Cc1cccs1 (stereo not drawn) | -0.496% | 0% | 3.67% | 7.18% | 0.996%
CCCN(C)C(=O)CCc1ccnc(N2CCOCC2)c1 | -1.44% | 2.98% | -0.058% | -3.75% | -0.678%
CCOCCCNc1nc2c(-c3cccc(F)c3)nnn2c2ccc(Cl)cc12 | 0.8% | 0% | 8.14% | 11.4% | 1.64%
CCC(C(=O)N1CCC2(CC1)C(=O)N(CC(=O)NCC(C)C)CN2c1ccccc1)c1ccccc1 (stereo not drawn) | -5.93% | -2.87% | -5.14% | -19.5% | -8.7%
